Reference: PMC9520036, “The heme-regulated inhibitor kinase requires dimerization for heme-sensing activity” (The Journal of Biological Chemistry, 2022)

Biological target: the molecule itself
Test: AUC; sedimentation velocity; samples at an absorbance of 0.5 at 280 nm, 20 °C, 42,000 rpm, c(s) distribution model in SEDFIT; self-association (oligomeric state from fit MW)

B1: Full-length HRI K196M, catalytically dead mutant (enzyme)
chain: not shown
notes: Catalytically dead, so not autophosphorylated; also called HRI-FL-K196M; His-HRI-FL-K196M
**Q.** For B1, which “stoichiometry N” value is on record?
**A.** 2
